Data as given in PubChem BioAssay AID686978 (National Center for Advancing Translational Sciences (NCATS), 2013).
The whole screen tested about 420,000 compounds, of which about 64,000 (15%) were called active. The shares of active, inactive and inconclusive entries below differ from those in the screen. The call rests on the fitted dose curve; in most records, active means well fitted inhibition curve with a large enough effect; inconclusive means small, poorly fitted or top-dose-only effect; inactive means flat fitted curve, though single readings scatter. No potency is given beside an inconclusive call; the fits are too rough.

Test: qHTS for Inhibitors of human tyrosyl-DNA phosphodiesterase 1 (TDP1): qHTS in cells in absence of CPT; further: nearly all actives have a fitted effect of over 55% in size
Conditions: DT40 Tdp1-/- hTDP1 cells, no CPT, ATP luminescence, 48 h; series mostly up to 46.2 µM
Outline: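 Growth of hTDP1-complemented DT40 Tdp1-knockout cells is measured by ATP luminescence after at least 48 hr compound exposure at 37 °C, with DMSO substituting for the 20 nM CPT used in the parallel screen.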
Potency means the concentration at half of the fitted maximal effect; tags describe the fitted curve by direction and shape.

| Compound | Potency |
| --- | --- |
| COc1ccc2nc(NC(=O)c3cc(S(=O)(=O)N4CCOCC4)ccc3C)sc2c1 | active: 18.4 µM |
| COc1ccc(NC(=O)c2ccc(NC(=O)CCS(=O)(=O)c3cccs3)cc2)cc1 | inconclusive [inhibitor, partial curve] |
| CC(=O)c1ccc(N=Nc2ccc(C)cc2)cc1 | inactive |
| COc1cccc(Nc2nc3ccc(C(=O)c4ccccc4)cc3n3c(C)nnc23)c1 | inconclusive [inhibitor, partial curve, poor fit] |
| Cc1ccc(C)c(S(=O)(=O)N2CCCCC2CCNC(=O)C(=O)NC2CCCC2)c1 (stereo unspecified) | active: 16.4 µM |
| O=C(NC1CCCc2ccccc21)C1CCN(S(=O)(=O)c2cccc(C(F)(F)F)c2)CC1 (stereo unspecified) | inconclusive [inhibitor, single point] |
| O=C(Nc1nnc(-c2ccc(Cl)cc2)o1)Nc1ccccc1F | inactive |
| CC(=O)NCc1ccc(S(=O)(=O)NC(C(=O)O)C(C)C)cc1 (stereo unspecified) | inactive |
| COC(=O)[C@H](Cc1ccccc1)NC(=O)Cn1cnc2c(OCc3ccccc3)ncnc21 | inconclusive [inhibitor, partial curve] |
| Cc1ccc(Oc2cc(NC(=O)CCCn3nc([N+](=O)[O-])c(Cl)c3C)cc([N+](=O)[O-])c2)cc1 | active: 23.1 µM |
| CC(=O)c1cccc(NC(=O)C2(C)Cc3c(-c4cccc(C(N)=O)c4)ccnc3O2)c1 (stereo unspecified) | inconclusive [inhibitor, single point] |
| Cc1sc2ncnc(N3CCC(C(=O)Nc4ccc(Cl)c(Cl)c4)CC3)c2c1C | inconclusive [inhibitor, single point] |
| COC(=O)CSc1nc2ccccn2c(=O)c1C=O | inactive |
| O=C(Nc1ccc(Cl)c(-c2nc3cc(Cl)ccc3o2)c1)c1cc2ccccc2o1 | inconclusive [inhibitor, single point] |
| C#CCCCCCCCCCCCC(=O)CC(O)COC(C)=O (stereo unspecified) | inactive |
| COc1ccc(C(=O)N2CCC3(CC2)CN(c2cccc(-c4ccccc4)c2)C3)cc1 | inconclusive [inhibitor, single point] |
| Cc1ccc(S(=O)(=O)N(c2nc(NC(C)C)nc(NC(C)C)n2)n2cnnc2)cc1 | inconclusive [inhibitor, single point] |
| COc1ccc(CCC(=O)NCCc2csc(-c3cccc(C)c3)n2)cc1 | inconclusive [inhibitor, single point] |
| COc1cccc(C(=O)Nc2ccc(C(=O)O)cc2)c1 | inconclusive [inhibitor, single point] |
| COCCNC(=O)c1c(CS(=O)(=O)c2ccccc2)noc1C(=O)NCc1ccccc1 | inactive |
| COc1ccc(CCNC(=O)CSc2nc3[nH]ncc3c(=O)n2-c2ccc(C)c(Cl)c2)cc1OC | inactive |
| CC1=C(C(=O)Nc2ccc(C(=O)NC(C)c3ccccc3)cc2)SCCO1 (stereo unspecified) | inactive |
| CC(C)C[C@@H](CN1CCCC1CN1C(=S)NC[C@@H]1Cc1ccc(O)cc1)N1C[C@H](Cc2ccc(O)cc2)N(CC2CCCCCC2)C1=S (stereo partly specified) | active: 8.2 µM |
| Cc1ccc(S(=O)(=O)N2CCCC(C(=O)NCc3cccnc3)C2)cc1Cl (stereo unspecified) | inconclusive [inhibitor, single point] |

| Compound | Potency |
| --- | --- |
| Cc1ccccc1NS(=O)(=O)c1nnc(NC(=O)c2ccco2)s1 | inconclusive [inhibitor, single point] |
| O=c1c(-c2cc(F)cc(F)c2)nc2cnc(N3CCNCC3)nc2n1CCc1ccccc1 | inconclusive [inhibitor, single point] |
| CCc1c(C)[nH]n(-c2nc(-c3cccc([N+](=O)[O-])c3)cs2)c1=O | inconclusive [inhibitor, single point] |
| O=C(c1cccc([N+](=O)[O-])c1)c1ccc2c(c1)OCCOCCOCCOCCO2 | inconclusive [inhibitor, single point] |
| CN(CCc1ccccn1)C(=O)CCC1CCCN(C(=O)c2ccsc2)C1 (stereo unspecified) | inactive |
| CCOC(=O)c1c(S(=O)(=O)NCC(=O)N(C)c2ccc(C)cc2)c(C)n(C)c1C | inactive |
| C[C@@H]1CN([C@H](C)CO)S(=O)(=O)c2ccc(-c3ccc(C(=O)N(C)C)cc3)cc2O[C@H]1CN(C)C(=O)Cc1ccccn1 | inactive |
| COC(=O)c1cccc(S(=O)(=O)N2CCC(C)CC2)c1 | inactive |
| CCCCOCCCn1cnc2c([nH]c3cc(OC)ccc32)c1=O | inconclusive [inhibitor, single point] |
| CCc1ccccc1N1C(=O)N(CC(=O)c2ccc(OC)cc2)c2ccccc2S1(=O)=O | inactive |
| COc1ccc(N2CCN(c3oc(Cc4ccccc4)nc3C#N)CC2)cc1 | active: 13 µM |
| COC(=O)[C@@]1(Cc2ccc(F)cc2)[C@H]2c3cc(C(=O)N(C)C)n(CC4CC4)c3C[C@H]2CN1C(=O)c1ccccc1 | active: 18.4 µM |
| CCN1C(=NCCOC)N[C@@H](c2cccc(C(F)(F)F)c2)C(C(=O)OC)=C1C | active: 18.4 µM |
| O=C1CCN(Cc2ccccc2)S(=O)(=O)c2ccc(F)cc21 | inconclusive [inhibitor, single point] |
| CCCc1ccc(C(=O)NNC(=O)c2ccc(Cl)cc2)cc1 | inactive |
| CCOC(=O)c1cc(C)n(CC2CCC(C(=O)Nc3cc(OC)cc(OC)c3)CC2)c1C (stereo unspecified) | active: 23.1 µM |
| CC1CCN(CC(=O)Nc2cccc(C(=O)Nc3cccc(C(F)(F)F)c3)c2)CC1 | active: 16.4 µM |
| C/C(=N/NC(=O)c1ccc(Br)o1)c1cccc(NC(=O)c2ccc(F)cc2)c1 | inconclusive [inhibitor, single point] |
| CCN(c1ccccc1)S(=O)(=O)c1ccc(C(=O)N(C)Cc2cccs2)cc1 | active: 23.1 µM |
| Cc1onc(-c2c(Cl)cccc2Cl)c1C(=O)Nc1ccc(Cl)cn1 | inconclusive [inhibitor, partial curve, poor fit] |
| COc1ccc(CN2CC(=O)N3[C@H]4c5cc(C)ccc5OC[C@@H]4[C@H](c4ccccc4)[C@]3(C)C2=O)cc1 | active: 20.6 µM |
| CCCNC(=O)c1cnc2c(-c3ccc(OCC)c(OCC)c3)c(C)nn2c1-c1ccccc1 | inconclusive [inhibitor, partial curve] |
| OCC[C@H]1C[C@H](O)[C@@H](O)[C@]2(OCc3ccccc32)O1 | inactive |
| COc1ccc(S(=O)(=O)N2CCCCC2)cc1NC(=O)C1CC(=O)N(c2ccc3c(c2)OCCO3)C1 (stereo unspecified) | inconclusive [inhibitor, single point] |

| Compound | Potency |
| --- | --- |
| O=C(CNc1ccc(Br)cc1)Nc1ccc(S(=O)(=O)N2CCCCC2)cc1 | active: 29.1 µM |
| Clc1cccc(CSc2nnc(C3CCNCC3)o2)c1 | inconclusive [inhibitor, partial curve, poor fit] |
| CCC1CCCCN1CCCNC(=O)Cn1ncc2c([nH]c3ccc(C)cc32)c1=O (stereo unspecified) | inactive |
| CCN(CCCNC(=O)Cn1ncc2c([nH]c3ccc(C)cc32)c1=O)Cc1ccccc1 | active: 16.4 µM |
| O=C(CNc1ccc(Cl)cc1)NNC(=S)NCc1ccccc1 | inconclusive [inhibitor, single point] |
| CS(=O)(=O)N(CC(=O)N1CCN(c2cccc(Cl)c2)CC1)C1CCCCC1 | inconclusive [inhibitor, single point] |
| O=C(NNc1ncnc2c1cnn2-c1ccc(F)cc1)c1cccs1 | inconclusive [inhibitor, single point] |
| O=C(N1CCCCC1)N1CCN(S(=O)(=O)c2ccccc2)CC1 | inactive |
| COc1cccc(C2CC(=O)C3=C(C2)Nc2ccccc2N(C(=O)CCC(=O)O)C3c2ccc(F)cc2)c1 (stereo unspecified) | inactive |
| Nc1ccc(C(=O)NCCCSc2ccccc2)cc1[N+](=O)[O-] | inconclusive [inhibitor, partial curve] |
| COc1ccc(NCc2ccc([N+](=O)[O-])s2)c(OC)c1 | inconclusive [inhibitor, single point] |
| O=C(NCCc1ccc(F)cc1)c1cc(=O)c2ccccc2o1 | inconclusive [inhibitor, partial curve, poor fit] |
| C=C1C=C(C(F)F)n2ncc(C(=O)Nc3ccc(Br)cc3C(F)(F)F)c2N1 | inactive |
| COc1ccc(CC(=O)NCc2cccs2)cc1OC | inactive |
| CCCCCc1c(-c2ccc(F)cc2F)ncn1CCc1ccccc1OC | active: 20.6 µM |
| CC1(C)C(=O)C2(CCCCC2)C(=O)OC1c1cccn1-c1ccc([N+](=O)[O-])cc1 (stereo unspecified) | inconclusive [inhibitor, partial curve, poor fit] |
| Cc1cnc(NC(=O)COc2cccc3c2OC(C)(C)C3)s1 | inconclusive [inhibitor, partial curve] |
| Cc1ccc(C)c(OCCN2C(=O)NC3(CCc4ccccc4C3)C2=O)c1 (stereo unspecified) | inactive |
| CCc1nnc(NC(=O)CC(CN(C)S(=O)(=O)c2ccccc2)c2ccccc2)s1 (stereo unspecified) | inconclusive [inhibitor, single point] |
| O=C(/C=C/c1ccco1)Nc1cccnc1Cl | inconclusive [inhibitor, single point] |
| O=C(O)C1=C[C@@H](c2ccc3c(c2)OCO3)C[C@@H](OCCCCO)O1 | inactive |
| COc1cccc(C(=O)/C=C/Nc2ccc(NC(C)=O)cc2)c1 | inactive |
| CCOC(=O)C(NC(=O)c1ccccc1Cl)(Nc1ccc(C(F)(F)F)cc1)C(F)(F)F (stereo unspecified) | inconclusive [inhibitor, single point] |
